Data from the CheMixHub viscosity set.
± gives the uncertainty stated by the source. Not every entry of the source has a single result; some have several. This list holds those alone. The source may hold further records. The records of an entry are repeats (runs, samples, wells, individuals or studies). A tag in brackets gives the origin of a value. A, B and so on number the origins entry by entry. Additions like (4×) count equal records among those shown.

| Structure (SMILES) | viscosity (298.15 K, 101.33 kPa) | viscosity (303.15 K, 101.33 kPa) | viscosity (308.15 K, 101.33 kPa) | viscosity (298.15 K, 101 kPa) | viscosity (313.15 K, 101 kPa) | viscosity (303.15 K, 101 kPa) | viscosity (308.15 K, 101 kPa) | viscosity (313.15 K, 101.33 kPa) |
| --- | --- | --- | --- | --- | --- | --- | --- | --- |
| O=C1CCCCC1 | 1.819 ± 0.023 mPa·s [study A] and 2.003 ± 0.018 mPa·s [study B] and 2.229 ± 0.019 mPa·s, 2.229 ± 0.029 mPa·s [study C] and 2.229 ± 0.051 mPa·s, 2.229 ± 0.013 mPa·s [study D] | 1.799 ± 0.014 mPa·s, 1.799 ± 0.023 mPa·s [study A] and 1.799 ± 0.042 mPa·s, 1.799 ± 0.011 mPa·s [study B] | 1.516 ± 0.019 mPa·s [study A] and 1.635 ± 0.011 mPa·s, 1.635 ± 0.02 mPa·s [study B] and 1.635 ± 0.038 mPa·s, 1.635 ± 0.01 mPa·s [study C] |  |  |  |  |  |
| CC(C)CC(C)(C)C |  | 0.451 ± 0.013 mPa·s [study A] and 0.436 ± 0.013 mPa·s [study B] and 0.466 ± 0.004 mPa·s [study C] and 0.4517 ± 0.0047 mPa·s [study D] |  | 0.476 ± 0.01 mPa·s [study A] and 0.4788 ± 0.0048 mPa·s [study B] and 0.496 ± 0.009 mPa·s [study C] and 0.4716 ± 0.0049 mPa·s [study D] | 0.405 ± 0.009 mPa·s [study A] and 0.398 ± 0.011 mPa·s [study B] and 0.4008 ± 0.0052 mPa·s [study C] and 0.3999 ± 0.0045 mPa·s [study D] |  |  |  |
| CC(=O)CC(C)C |  |  |  |  |  | 0.515 ± 0.022 mPa·s [study A] and 0.505 ± 0.017 mPa·s [study B] and 0.497 ± 0.1 mPa·s [study C] and 0.518 mPa·s [study D] |  |  |
| CCCCCCO | 4.317 ± 0.097 mPa·s, 4.486 ± 0.041 mPa·s (2×), 4.5 ± 0.039 mPa·s, 4.274 ± 0.094 mPa·s, 4.216 ± 0.18 mPa·s (2×), 4.394 ± 0.051 mPa·s, 4.574 ± 0.2 mPa·s [several studies] | 3.818 ± 0.035 mPa·s, 3.769 ± 0.034 mPa·s, 3.67 ± 0.083 mPa·s, 3.603 ± 0.08 mPa·s, 3.567 ± 0.16 mPa·s (2×), 3.733 ± 0.044 mPa·s, 3.861 ± 0.089 mPa·s, 3.781 ± 0.17 mPa·s, 3.861 ± 0.034 mPa·s, 3.792 ± 0.049 mPa·s, 3.751 ± 0.043 mPa·s, 3.97 ± 0.16 mPa·s [several studies] | 3.13 ± 0.072 mPa·s [study A] and 3.022 ± 0.068 mPa·s [study B] and 2.766 ± 0.12 mPa·s [study C] and 3.252 ± 0.14 mPa·s [study D] and 2.766 ± 0.12 mPa·s [study E] and 3.213 ± 0.038 mPa·s [study F] | 4.48 ± 0.03 mPa·s [study A] and 4.329 ± 0.11 mPa·s [study B] and 4.611 ± 0.042 mPa·s [study C] and 4.48 ± 0.01 mPa·s [study D] |  | 3.765 ± 0.32 mPa·s, 3.818 ± 0.035 mPa·s, 3.765 ± 0.03 mPa·s, 3.807 ± 0.047 mPa·s (2×), 3.675 ± 0.022 mPa·s, 3.701 ± 0.11 mPa·s, 3.883 ± 0.13 mPa·s, 3.751 ± 0.75 mPa·s, 3.537 ± 0.35 mPa·s, 3.675 ± 0.065 mPa·s [several studies] | 3.604 ± 0.72 mPa·s [study A] and 3.34 ± 0.03 mPa·s [study B] and 3.3 ± 0.28 mPa·s [study C] and 3.107 ± 0.064 mPa·s [study D] and 3.391 ± 0.03 mPa·s [study E] and 3.33 ± 0.01 mPa·s [study F] and 3.108 ± 0.019 mPa·s [study G] | 2.934 ± 0.027 mPa·s [study A] and 3.11 ± 0.024 mPa·s [study B] and 2.812 ± 0.039 mPa·s [study C] and 3.11 ± 0.036 mPa·s [study D] |
